# Reference: the supplement of paper PMC11417369
# ± gives the standard deviation of the averaged measurements. The list shows a part of the results.
# System: PfAP2-LT AP2 domain (GST-tagged)
# Assay: gcPBM binding intensity (ln(normalized median fluorescence intensity)); higher = stronger DNA binding
# Outline: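 After 1 h on an Agilent 4 × 180k array of primer-extended double-stranded 36-bp intergenic genomic probes and negative controls, bound GST-tagged P. falciparum DNA-binding domains were detected with Alexa488 anti-GST antibody and scanned at 488 nm. The domains had been expressed in E. coli, and binding took place in 1× PBS with 1% milk, 0.2 mg/ml BSA, 0.5% salmon testes DNA and 0.03% Triton X-100. Binding intensity is the highest Masliner-normalised natural-log median intensity across replicate spots of either probe orientation.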
row,Sequence,gcPBM binding intensity (ln)
1,ATTAAAAAATTATTCACACAAAATAAAAAAATGAAA [CACACA_site4918],8.59 ± 0.52
2,ATATTTAGGATTATCTGTACATAATATGTTTAATTA [XGTACX_site3426],8.58 ± 0.47
3,AAATATTTGGAGAAATGTACATATTATAAATATATT [XGTACX_site6885],8.87 ± 0.42
4,CTAGGAAATTATATGGGTACTCATATTCATAAAAAA [XGTACX_site1846],8.53 ± 0.53
5,AAAAAAAACGCACATACACACACACCCATATATATA [CACACA_site9118],10.13 ± 0.028
6,AAAAAAAAAAAAAAGGTGCAAATAAATTAACCTTAT,8.56 ± 0.57
7,TTTTATTTTTTCCGACGTACATCCATTATATATAAT [XGTACX_site4469],8.89 ± 0.49
8,AAATGTTAAAATGACAGTACATATATAAAAAAAAAA [XGTACX_site3936],8.8 ± 0.59
9,AAAAAAAGAATGTGAACACACACATTGAATATAATT [CACACA_site8341],9.23 ± 0.5
10,AAGAACAGAACGTACACACACATATATATATATATA [CACACA_site3457],10.2 ± 0.28
11,AATTATTTACCCTATACACACAAAACCCACTAAAAA [CACACA_site4801],9.28 ± 0.29
12,TATAAATAAATACATACACACACATACATATATATA [CACACA_site9024],9.66 ± 0.014
13,AATCATATGAAAAATACATGCGCATGGATACCTTTA [TGCATGCA_site224],9.14 ± 0.35
14,TACTTATGTGCATACCTACACACTTACATATATATA [CACACA_site2975],9.07 ± 0.45
15,GATGATGTTTATTTGTGTACATATTAATACTTAATA [XGTACX_site1902],8.88 ± 0.35
16,TTTTCTTTTTTTTATTGTACTTATAAAAATAAATAA [XGTACX_site3498],8.14 ± 0.52
17,ATAAAATCAAAATATACACACAAGGGGGAAAATCAA [CACACA_site2809],9.2 ± 0.45
18,GCATATATCAAATATCGTACATTTTTTAAATTAAAA [XGTACX_site3994],8.4 ± 0.35
19,ATAGGACATGTATCCAGTACATATTTAAAAAAAATA [XGTACX_site88],8.79 ± 0.6
20,TTTGTAAGTCTTTGTTGTACTCAATAGAATGAAGAA [XGTACX_site8930],8.29 ± 0.4
21,GCATCCCTTTTTATGTGTACATACAAAGGCAATTAC [XGTACX_site6977],8.99 ± 0.56
22,AAAATATAAATCTAAGCATGCAAAAAAAATTTATAA [TGCATGCA_site1008],8.84 ± 0.38

row,Sequence,gcPBM binding intensity (ln)
1,TATTGTTTTAAAGAGACATGCAATATATATTATTCC [TGCATGCA_site752],8.51 ± 0.42
2,TAATATTATAGATAAACACACATACACATGTAAATA [CACACA_site7049],9.01 ± 0.29
3,AAATGAAATTTGTATACACACAAATATATATATATA [CACACA_site836],9.36 ± 0.31
4,TATAAGCAAAAACACACACACATATATATATATATA [CACACA_site3804],10.2 ± 0.23
5,AATAATAATAGTAATATGTACATATATATATATATA [TGCATGCA_negctrl_site542],9.515 ± 0.092
6,TTATTTAAAAAAAAGTGTACCCATATATTATAAATC [XGTACX_site8374],8.5 ± 0.51
7,AATTTATATTTTCGTAGTACGTATTTTATTCTTTTG [XGTACX_site4162],8.97 ± 0.49
8,TATAAGGTGTCCTATACACACTCCAATAGATATATA [CACACA_site7066],8.69 ± 0.45
9,CTGAACCCGTTATGGTGTACATAAAATAAGACACAG [XGTACX_site3484],8.89 ± 0.62
10,ATTACATGCAATATATGTACGTAATATATATATATA [XGTACX_site2300],9.16 ± 0.085
11,TAATCTTTCGTACATGTACACACAGAAAAAAAAAAA [CACACA_site8798],8.86 ± 0.42
12,TGCATGCATTATCATAGTACATATAATGTTGTATAA [XGTACX_site2775],8.82 ± 0.4
13,ATTATTAAGTTTCACAAGAACATTGTTAACAATTTT [CACACA_negctrl_site1128],8.62 ± 0.52
14,TATTAAGTATTTTACGTACACACTTATAAATGTACA [CACACA_site3885],8.72 ± 0.42
15,AATAATCATGATCAAAGTACTTATGAATACCAAAAA [XGTACX_site2572],8.97 ± 0.57
16,AAAAAAAAAAAGTACACACATACATATAAATATATA [CACACA_site1809],9.04 ± 0.46
17,AAAGACGCAAAATTGGTGCGCTGCTTTTAGCATTTT,8.89 ± 0.36
18,ACAGAATATTTAATTCAACACACATACATATTTATT [CACACA_site8734],8.92 ± 0.49
19,ATTTATATCCTTAAACGTACATTGTATTGTATTTTA [XGTACX_site6080],8.91 ± 0.52
20,GAAAAAATTTTATGGTGTACTTTATTTATTTATATA [XGTACX_site6323],8.64 ± 0.45
21,GAAATATTTAGACACACACACAAACATATAAATATA [CACACA_site6980],9.84 ± 0.35
22,ATGTTGTGTATATATACACACATACATATATATATA [CACACA_site8461],9.44 ± 0.2
